Here are results for 53 compounds from PubChem BioAssay AID1346428 (National Center for Advancing Translational Sciences (NCATS), 2018).

The whole screen tested about 48,000 compounds, of which about 1,200 (2.5%) were called active. Not shown: some 2% with an inconclusive outcome.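 The calls were made as follows: active = activation of at least 60% and not above a set upper limit (about 1 call in 100 departs from these limits); inconclusive = activation of 40% to 60%, or above that upper limit; inactive = activation under 40%.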 The list shows a part of the results.

Sequence of UniProt O75388 (O75388 whole entry, looked up): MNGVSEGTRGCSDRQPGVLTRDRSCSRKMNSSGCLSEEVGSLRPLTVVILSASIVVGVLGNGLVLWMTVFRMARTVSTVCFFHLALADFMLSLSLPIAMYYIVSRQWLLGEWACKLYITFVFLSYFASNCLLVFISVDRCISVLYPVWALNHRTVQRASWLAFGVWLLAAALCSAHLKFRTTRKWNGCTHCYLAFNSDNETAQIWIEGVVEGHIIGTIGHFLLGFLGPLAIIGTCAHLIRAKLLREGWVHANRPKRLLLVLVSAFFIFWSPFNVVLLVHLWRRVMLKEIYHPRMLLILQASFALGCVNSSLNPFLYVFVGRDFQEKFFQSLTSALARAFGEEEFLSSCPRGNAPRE

The target in this test is Probable G-protein coupled receptor 32 (Homo sapiens) (UniProt O75388). The test is described as follows: qHTS for Agonists of Human Resolvin D1 Receptor DRV1. Also: 0% is about no effect. The following applies: CHO-K1 GPR32 beta-arrestin PathHunter luminescence, 90 min; at 76.9 µM; active compounds read high; zero percent set by DMSO-only wells. In short, it runs like this:
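CHO-K1 cells stably expressing ProLink-tagged GPR32 and Enzyme Activator-tagged beta-arrestin were seeded at 2,500 cells/well overnight, exposed to compounds for 90 min at 37 °C, then read by beta-Gal complementation chemiluminescence after 1 h detection reagent.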
Turning to `Cc1nc2ccc(S(=O)(=O)CCC(=O)Nc3ccccc3C)cc2s1`, the activation was inactive: -8.34%. Then `CCOC(=O)c1ccc(NC(=O)C2CCCN(c3ncnc4onc(C)c34)C2)cc1` (stereo not drawn), with inactive: -4.56%; and `Cc1ccc(NC(=O)Cn2c(=O)oc3cc(S(=O)(=O)N4CCCC4)ccc32)cc1F`, with inactive: 21.5%.

As to `COc1ccc(NC(=O)CSC2=Nc3ccccc3C3=NC(CCC(=O)NCc4ccco4)C(=O)N23)cc1` (stereo not drawn), the activation was inactive: -16.1%.

As to `COc1ccccc1N1CCN(CCCNC(=O)Cn2ncc3c([nH]c4ccccc43)c2=O)CC1`, the activation is inactive: -14.4%. Then `O=C(CC1NCCNC1=O)Nc1cccc(F)c1` (stereo not drawn), with inactive: -7.95%; and `Cc1ccc2ncc3c(-c4ccccc4)nn(CC(=O)NC4CCCCC4)c3c2c1`, with inactive: 6.17%; and `CCc1ccc(CN2CCc3nc(Nc4ccc5c(c4)OCCO5)ncc3C2)cc1`, with inactive: -21.8%. Consider `CCc1ccc(CNc2nc3nc(C)c(Cc4ccccc4)c(=O)n3[nH]2)cc1`, for which the activation is inactive: 3.77%.

For `CCc1ccc(-c2nc(SCC(=O)NCCOC)c(-c3ccc(C)cc3)[nH]2)cc1`, the activation is inactive: -28.9%.

As to `COc1ccccc1CNC(=O)C(=O)NCC(c1ccc2c(c1)OCO2)N1CCOCC1` (stereo not drawn), the activation was inactive: 1.66%. Then `CCc1ccc2nc(N3CCN(C(=O)c4ccco4)CC3)sc2c1`, with inactive: 8.88%. For `COc1ccc(CCNc2oc(COc3ccc(Cl)cc3)nc2C#N)cc1OC` the value was inactive: 38.1%; for `CC(=O)c1cccc(NC(=O)C2=CC(c3ccco3)=NS(=O)(=O)N2C)c1`, inactive: 1.87%. `COc1ccc(Nc2nnc(-c3ccc(C)c(S(N)(=O)=O)c3)c3ccccc23)cc1`: the activation is inactive: 26.8%.

For the compound `CSc1nn(Cc2cccc(F)c2)c(N(C(C)=O)C(C)=O)c1S(=O)(=O)c1ccccc1`, the activation was active: 83.3%. Then `CCc1cccc(C)c1NC(=O)c1cnn(-c2ccc(F)cc2)c1-n1cccc1`, with inactive: 0.735%. Then `CCOc1ccc(S(=O)(=O)Nc2ccc(-c3ccc(N4CCCC4)nn3)cc2)cc1`, with inactive: 7.19%. Then `Cc1cccc(S(=O)(=O)c2cn(Cc3ccccc3)c3cc(N4CCCC(C)C4)c(F)cc3c2=O)c1` (stereo not drawn), with inactive: -12.2%; and `Cc1cccc2sc(N3CCN(C(=O)c4ccco4)CC3)nc12`, with inactive: 8.61%; and `Cc1cc(NC(=O)C2CCCN(S(=O)(=O)c3cccc4nonc34)C2)ccc1Br` (stereo not drawn), with inactive: 3.81%. As to `Clc1ccc(CSc2nc(NCCc3ccccc3)c3ccccc3n2)cc1`, the activation is inactive: -7.31%. For `CCC(=O)N1CCc2cc(S(=O)(=O)NC(CC(C)C)C(=O)Nc3ccc(CC)cc3)ccc21` (stereo not drawn) the value was inactive: -7.9%; for `O=C(CN1N=C(c2ccc(Cl)cc2)CCC1=O)NCc1ccc(F)cc1`, inactive: -20%. For `O=C1Nc2ccccc2Oc2cc(Oc3ccc(Cl)cc3)ccc21` the value was inactive: 6.13%; for `COc1ccc(OC)c(CNCc2c(C(=O)O)n(Cc3ccccc3)c3cc(OC)ccc23)c1`, inactive: 17.8%; for `COc1ccc(-c2onc(C)c2C)cc1S(=O)(=O)N1CCC(C)CC1`, inactive: -9.01%.

For `CCc1ccc(NC(=O)c2ccc(CN3C(=O)C(C)=C(c4ccc(C)cc4)S3(=O)=O)cc2)cc1`, the activation is inactive: -4.51%.

Take `Cn1c(=O)c2[nH]c(-c3ccc(S(=O)(=O)O)cc3)nc2n(C)c1=O`: the activation is inactive: 5.24%. For `COc1cccc(-c2nc(C(N)=O)c3c(n2)n(-c2ccc4c(c2)OCO4)c(=O)n3C)c1OC` the value was inactive: -10.6%; for `Cn1c(C(=O)NCc2cccc(F)c2)cc2cc(S(=O)(=O)N3CCCCC3)ccc21`, inactive: -8.12%; for `CCOc1ccccc1NC(=O)CSc1cc(=O)n(CC)c2ccccc12`, inactive: 13.9%. For `COc1ccccc1CCNC(=O)c1cccn1-c1nnc(N2CCCCC2)s1` the value was inactive: 21.9%; for `O=C(Cn1cc(S(=O)(=O)Cc2ccc(F)cc2)c2ccccc21)NCc1ccccc1`, inactive: -12.4%.

For the compound `CC(=O)c1cc(-c2ccccc2)n(CCC(=O)Nc2cc(C)cc(C)c2)c1C`, the activation is inactive: -26.5%.

For the compound `CCOc1ccc(-c2cc(C(F)(F)F)c(C#N)c(SCC(=O)Nc3ccccc3)n2)cc1`, the activation was inactive: 4.95%. Then `C[C@@H]1CN(c2c(F)c(N)c3c(=O)c(C(=O)O)cn(C4CC4)c3c2F)C[C@H](C)N1`, with inactive: 7.84%; and `Cc1cccc(NC(=O)CSc2nc(C)c(Cc3ccccc3)c(=O)[nH]2)c1`, with active: 68.4%.

In the case of `CCCNC(=O)CN1C(=O)c2cccnc2Sc2ccccc21`, the activation is inactive: -9.76%.

As for `COc1ccccc1N1CCN(C(=O)c2c3c(nc4ccccc24)C(=O)N(C2CCCCC2)C3)CC1`, the activation is inactive: -17.3%. Then `Cc1ccc(C)c(N2CCN(C(=O)c3c4c(nc5ccccc35)C(=O)N(C3CCCCC3)C4)CC2)c1`, with inactive: -11.8%; and `COc1ccc(-c2nc(CNS(=O)(=O)c3ccc(F)cc3)cs2)cc1`, with inactive: -17.9%. `CCCOc1cccc(C(=O)Nc2ccc(-c3nc4ccccc4o3)cc2)c1`: the activation was active: 108%. For `CCC(C)NC(=O)c1sc2nc(C)c(C(=O)Nc3ccc(Cl)cc3)c(-c3ccc(Br)cc3)c2c1N` (stereo not drawn) the value was inactive: 8.44%; for `O=C(N/N=C/c1ccccc1O)c1ccncc1`, active: 95.9%. Then `O=C(CSc1nc2c(c(=O)[nH]1)CN(Cc1ccc3c(c1)OCO3)CC2)Nc1ccc(F)cc1`, with inactive: 23.7%; and `COc1ccc2cc(CNc3ccc(OC)c(OC)c3)c(=O)n(CC(=O)Nc3ccc(C)cc3)c2c1`, with inactive: -35.9%; and `COc1cc(OC)cc(-n2c(=O)c3ccccc3n(CC(=O)NCCc3ccc(OC)c(OC)c3)c2=O)c1`, with inactive: 6.92%. As to `COC(=O)c1cc(NC(=O)CN(c2ccccc2)S(=O)(=O)N(C)C)ccc1Cl`, the activation is inactive: 20%. Then `COc1ccc(NC(=O)Cn2cc(C(=O)C3CC3)c3ccccc32)cc1`, with inactive: 13%. For `CCN1CCN(C(=O)c2ccc3c(c2)N(Cc2cc(C)ccc2C)C(=O)c2ccccc2S3=O)CC1` (stereo not drawn) the value was inactive: -13.8%. Then `CCOc1ccccc1NC(=O)Cn1nnc2sc3c(c2c1=O)CCC(C(C)(C)C)C3` (stereo not drawn), with inactive: -6.95%; and `NS(=O)(=O)c1ccc(CCNc2nc3c(-c4cccc(F)c4)nnn3c3ccc(Cl)cc23)cc1`, with inactive: 13.8%.
